{"source": "the supplement of paper PMC6531468", "note": "Some of the results follow. These are enrichments in a pooled selection; single values are uncertain. Scores sum up all selected molecules that hold the word; the word was not tested alone.", "data": [{"system": "IMP3 KH1-2", "sequence (chain, as listed by the source)": "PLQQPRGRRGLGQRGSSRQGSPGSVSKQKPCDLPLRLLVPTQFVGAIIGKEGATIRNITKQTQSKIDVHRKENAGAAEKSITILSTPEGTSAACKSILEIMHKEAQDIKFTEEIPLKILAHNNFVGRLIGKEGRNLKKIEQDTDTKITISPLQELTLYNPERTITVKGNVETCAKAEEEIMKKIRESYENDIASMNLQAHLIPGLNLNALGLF", "assay": "6-mer SELEX enrichment z-score vs GST control; higher = more enriched by binding", "details": "construct: KH1-2 (164-376); SELEX round: R4", "experimental": "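SELEX-seq with GST-tagged IMP3 KH1-2 (Pro164-Phe376) and an N40 RNA pool, round 4 (stringent 300/600 mM KCl washes). 6-mer z-score of sequence-tag enrichment normalised to the corresponding GST SELEX round; RNA k-mers written as DNA (T for U).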", "values": [{"sequence": "TAGTGC", "6-mer SELEX enrichment z-score": -0.246}, {"sequence": "GTGTTT", "6-mer SELEX enrichment z-score": -0.099}, {"sequence": "TGGCCC", "6-mer SELEX enrichment z-score": -0.204}, {"sequence": "TCCATC", "6-mer SELEX enrichment z-score": 0.484}, {"sequence": "GAACTC", "6-mer SELEX enrichment z-score": -0.902}, {"sequence": "TAAAAG", "6-mer SELEX enrichment z-score": -0.338}, {"sequence": "GGCGAT", "6-mer SELEX enrichment z-score": 0.133}, {"sequence": "GGCTGA", "6-mer SELEX enrichment z-score": -0.171}, {"sequence": "GAGGTG", "6-mer SELEX enrichment z-score": 0.318}, {"sequence": "GAACAC", "6-mer SELEX enrichment z-score": 0.326}, {"sequence": "ACCTAC", "6-mer SELEX enrichment z-score": -1.17}, {"sequence": "GTCTGT", "6-mer SELEX enrichment z-score": 0.045}, {"sequence": "AGGAGT", "6-mer SELEX enrichment z-score": 0.5}, {"sequence": "ATGCTC", "6-mer SELEX enrichment z-score": -0.029}, {"sequence": "AGCTAA", "6-mer SELEX enrichment z-score": -0.701}, {"sequence": "TAACTT", "6-mer SELEX enrichment z-score": 0.965}, {"sequence": "GAGGAA", "6-mer SELEX enrichment z-score": 0.551}, {"sequence": "TTCCAA", "6-mer SELEX enrichment z-score": -0.249}, {"sequence": "TTTTAA", "6-mer SELEX enrichment z-score": 1.15}, {"sequence": "ATTTCG", "6-mer SELEX enrichment z-score": 0.002}, {"sequence": "GATCCA", "6-mer SELEX enrichment z-score": -0.587}, {"sequence": "TGTCAC", "6-mer SELEX enrichment z-score": -0.143}, {"sequence": "GGTTTT", "6-mer SELEX enrichment z-score": 0.115}, {"sequence": "GATGGA", "6-mer SELEX enrichment z-score": 0.614}, {"sequence": "ACACGT", "6-mer SELEX enrichment z-score": -0.308}, {"sequence": "TGTGCC", "6-mer SELEX enrichment z-score": -0.525}, {"sequence": "CAAATA", "6-mer SELEX enrichment z-score": 1.32}, {"sequence": "CCGTTA", "6-mer SELEX enrichment z-score": 0.269}, {"sequence": "TGGTTC", "6-mer SELEX enrichment z-score": -0.085}, {"sequence": "ACTCCC", "6-mer SELEX enrichment z-score": -0.387}, {"sequence": "AACCGG", "6-mer SELEX enrichment z-score": -0.913}, {"sequence": "AAACGC", "6-mer SELEX enrichment z-score": -1.17}, {"sequence": "CAACAT", "6-mer SELEX enrichment z-score": 1.77}, {"sequence": "GGAAGA", "6-mer SELEX enrichment z-score": 0.707}, {"sequence": "ACTAGA", "6-mer SELEX enrichment z-score": 0}, {"sequence": "CAAGAG", "6-mer SELEX enrichment z-score": -1.31}, {"sequence": "GAGACT", "6-mer SELEX enrichment z-score": -0.494}, {"sequence": "AATGCT", "6-mer SELEX enrichment z-score": 0.223}, {"sequence": "GCTCCT", "6-mer SELEX enrichment z-score": 0.2}]}, {"system": "IMP3 KH3-4", "sequence (chain, as listed by the source)": "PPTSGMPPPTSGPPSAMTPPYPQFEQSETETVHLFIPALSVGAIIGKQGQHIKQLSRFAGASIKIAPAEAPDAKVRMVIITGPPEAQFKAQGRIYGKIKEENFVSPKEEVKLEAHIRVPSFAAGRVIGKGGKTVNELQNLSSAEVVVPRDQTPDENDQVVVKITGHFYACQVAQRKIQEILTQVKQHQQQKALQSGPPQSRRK", "assay": "6-mer SELEX enrichment z-score vs GST control; IMP3 is the RNA-binding protein IGF2BP3; higher = more enriched by binding", "details": "construct: KH3-4 (377-579); SELEX round: R4", "experimental": "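SELEX-seq with GST-tagged IMP3 KH3-4 (Pro377-Lys579) and an N40 RNA pool, round 4. 6-mer z-score of sequence-tag enrichment normalised to the corresponding GST SELEX round; RNA k-mers written as DNA (T for U).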", "values": [{"sequence": "TAGTGC", "6-mer SELEX enrichment z-score": -0.109}, {"sequence": "GTGTTT", "6-mer SELEX enrichment z-score": 0.071}, {"sequence": "TGGCCC", "6-mer SELEX enrichment z-score": -0.653}, {"sequence": "TCCATC", "6-mer SELEX enrichment z-score": -0.094}, {"sequence": "GAACTC", "6-mer SELEX enrichment z-score": -1.09}, {"sequence": "TAAAAG", "6-mer SELEX enrichment z-score": 0.576}, {"sequence": "GGCGAT", "6-mer SELEX enrichment z-score": 0.538}, {"sequence": "GGCTGA", "6-mer SELEX enrichment z-score": -0.05}, {"sequence": "GAGGTG", "6-mer SELEX enrichment z-score": 0.389}, {"sequence": "GAACAC", "6-mer SELEX enrichment z-score": -0.077}, {"sequence": "ACCTAC", "6-mer SELEX enrichment z-score": -1.6}, {"sequence": "GTCTGT", "6-mer SELEX enrichment z-score": 0.116}, {"sequence": "AGGAGT", "6-mer SELEX enrichment z-score": 0.613}, {"sequence": "ATGCTC", "6-mer SELEX enrichment z-score": -0.161}, {"sequence": "AGCTAA", "6-mer SELEX enrichment z-score": -0.498}, {"sequence": "TAACTT", "6-mer SELEX enrichment z-score": 1.16}, {"sequence": "GAGGAA", "6-mer SELEX enrichment z-score": 0.825}, {"sequence": "TTCCAA", "6-mer SELEX enrichment z-score": -0.436}, {"sequence": "TTTTAA", "6-mer SELEX enrichment z-score": 2.1}, {"sequence": "ATTTCG", "6-mer SELEX enrichment z-score": 0.149}, {"sequence": "GATCCA", "6-mer SELEX enrichment z-score": -0.787}, {"sequence": "TGTCAC", "6-mer SELEX enrichment z-score": -0.146}, {"sequence": "GGTTTT", "6-mer SELEX enrichment z-score": 0.374}, {"sequence": "GATGGA", "6-mer SELEX enrichment z-score": 0.902}, {"sequence": "ACACGT", "6-mer SELEX enrichment z-score": -0.371}, {"sequence": "TGTGCC", "6-mer SELEX enrichment z-score": -0.812}, {"sequence": "CAAATA", "6-mer SELEX enrichment z-score": 1.57}, {"sequence": "CCGTTA", "6-mer SELEX enrichment z-score": 0.009}, {"sequence": "TGGTTC", "6-mer SELEX enrichment z-score": 0.042}, {"sequence": "ACTCCC", "6-mer SELEX enrichment z-score": -1.23}, {"sequence": "AACCGG", "6-mer SELEX enrichment z-score": -0.938}, {"sequence": "AAACGC", "6-mer SELEX enrichment z-score": -1.27}, {"sequence": "CAACAT", "6-mer SELEX enrichment z-score": 1.07}, {"sequence": "GGAAGA", "6-mer SELEX enrichment z-score": 0.922}, {"sequence": "ACTAGA", "6-mer SELEX enrichment z-score": 0.358}, {"sequence": "CAAGAG", "6-mer SELEX enrichment z-score": -1.17}, {"sequence": "GAGACT", "6-mer SELEX enrichment z-score": -0.334}, {"sequence": "AATGCT", "6-mer SELEX enrichment z-score": 0.284}, {"sequence": "GCTCCT", "6-mer SELEX enrichment z-score": 0.003}]}]}
